Experiment in all cases: glycan array binding signal (z-score within array); higher = stronger binding
Details in all cases: glycan notation: IUPAC condensed, linker removed

For experiment [1], the target named is Gal(b1-4)GlcNAc(b1-3)Gal(b1-4)GlcNAc(b1-3)[Gal(b1-4)GlcNAc(b1-3)Gal(b1-4)GlcNAc(b1-6)]GalNAc. An outline of the steps:
(§1)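 Arrays were curated from the Consortium for Functional Glycomics database, 3228 in total, and kept only where the protein sequence was available. Binding is expressed as a within-array Z-score. This score was averaged across arrays of the same protein sequence at different concentrations or buffers and across linkers, and negative values can be read as non-binding.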

The target in experiment [2] is Gal(b1-4)GlcNAc(b1-3)Gal(b1-4)GlcNAc(b1-6)[Gal(b1-3)]GalNAc. An outline of the steps: as §1
For experiment [3], the target named is Gal(b1-4)GlcNAc(b1-3)Gal(b1-4)[Fuc(a1-3)GlcNAc(b1-6)]Gal(b1-4)Glc. An outline of the steps: as §1
Experiment [4] concerns the target Gal(b1-4)GlcNAc(b1-3)Gal(b1-4)[Fuc(a1-3)]GlcNAc(b1-3)Gal(b1-4)[Fuc(a1-3)]GlcNAc. An outline of the steps: as §1
Experiment [5] has as its target Gal(b1-4)GlcNAc(b1-3)GalNAc. An outline of the steps:
as §1

Experiment [6] deals with Gal(b1-4)GlcNAc(b1-3)[Fuc(a1-3)GlcNAc(b1-6)]Gal(b1-4)Glc. An outline of the steps:
as §1

Experiment [7] deals with Gal(b1-4)GlcNAc(b1-3)[Gal(b1-4)GlcNAc(b1-6)]Gal(b1-4)GlcNAc. An outline of the steps: as §1
Experiment [8] addresses Gal(b1-4)GlcNAc(b1-3)[Gal(b1-4)GlcNAc(b1-6)]GalNAc. An outline of the steps: as §1
The target in experiment [9] is Gal(b1-4)GlcNAc(b1-3)[GlcNAc(b1-6)]Gal(b1-4)GlcNAc. An outline of the steps: as §1
Experiment [10] deals with Gal(b1-4)GlcNAc(b1-6)Gal(b1-4)GlcNAc. An outline of the steps: as §1
Experiment [11] has as its target Gal(b1-4)GlcNAc(b1-6)GalNAc. An outline of the steps: as §1
Experiment [12] concerns the target Gal(b1-4)GlcNAc(b1-6)[Gal(b1-3)]GalNAc. An outline of the steps:
as §1

The target of experiment [13] is Gal(b1-4)GlcNAc(b1-6)[Gal(b1-4)GlcNAc(b1-3)]GalNAc. An outline of the steps: as §1
The next experiment has as its target Gal(b1-4)GlcNAc6P. An outline of the steps:
as §1

A further experiment concerns the target Gal(b1-6)Gal. An outline of the steps:
as §1

A further experiment concerns the target Gal3S(b1-3)GalNAc. An outline of the steps:
as §1

In the next experiment the target is Gal3S(b1-3)GlcNAc. An outline of the steps:
as §1

In experiment [14] the target is Gal3S(b1-3)[Fuc(a1-4)]GlcNAc. An outline of the steps: as §1
The next experiment has as its target Gal3S(b1-4)Glc. An outline of the steps:
as §1

The target of another experiment is Gal3S(b1-4)Glc6S. An outline of the steps:
as §1

The next experiment addresses Gal3S(b1-4)GlcNAc. An outline of the steps:
as §1

The next experiment deals with Gal3S(b1-4)GlcNAc6S. An outline of the steps: as §1
Experiment [15] deals with Gal3S(b1-4)[Fuc(a1-3)]Glc. An outline of the steps:
as §1

This is one part of the list.

B1: Gal 4 (Mus musculus), P56470 (protein)
chain: MAYVPAPGYQPTYNPTLPYYQPIPGGLNVGMSVYIQGVASEHMKRFFVNFVVGQDPGSDVAFHFNPRFDGWDKVVFNTLQGGKWGSEERKRSMPFKKGAAFELVFIVLAEHYKVVVNGNPFYEYGHRLPLQMVTHLQVDGDLQLQSINFIGGQPLRPQGPPMMPPYPGPGHCHQQLNSLPTMEGPPTFNPPVPYFGRLQGGLTARRTIIIKGYVPPTGKSFAINFKVGSSGDIALHINPRMGNGTVVRNSLLNGSWGSEEKKITHNPFGPGQFFDLSIRCGLDRFKVYANGQHLFDFAHRLSAFQRVDTLEIQGDVTLSYVQI
On to B1, for which the “glycan array binding signal (z-score)” value was -0.265 in experiment [1]; -0.261 in experiment [2]; -0.199 in experiment [3]; -0.232 in experiment [4]; -0.222 in [5]; -0.327 in [6]. Moreover, the “glycan array binding signal (z-score)” value in experiment [7] is -0.207; in experiment [8], -0.182; in [9] it was -0.225; in experiment [10], -0.22; in experiment [11], -0.252; in [12], -0.217. Besides, the “glycan array binding signal (z-score)” value was -0.23 in experiment [13]; -0.171 with Gal(b1-4)GlcNAc6P; -0.209 in the experiment with Gal(b1-6)Gal; 0.335 with Gal3S(b1-3)GalNAc; 0.334 with Gal3S(b1-3)GlcNAc; -0.25 in experiment [14]. Besides, the “glycan array binding signal (z-score)” value with Gal3S(b1-4)Glc was -0.044; with Gal3S(b1-4)Glc6S it was 1.02; in the experiment with Gal3S(b1-4)GlcNAc, -0.156; with Gal3S(b1-4)GlcNAc6S, -0.175; in experiment [15] it was -0.198.

The values above are taken from the supplement of paper PMC8728848.
